Some of the results follow.

The values below come from paper PMC12136788.

The chains are these.
T1: UNK ZnF1-3 (human, UniProt Q9C0B0 31-174)
T1 sequence: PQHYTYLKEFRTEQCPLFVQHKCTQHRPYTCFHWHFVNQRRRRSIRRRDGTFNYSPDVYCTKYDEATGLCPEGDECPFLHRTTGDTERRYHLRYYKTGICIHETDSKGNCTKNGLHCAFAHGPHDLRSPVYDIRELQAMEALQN

B1: chr10:131959147:131959148:+_ENSG00000108010_ENST00000331244|hu_mus|FALSE|FALSE (ssRNA)
RNA: GGGAGUUCUACAGUCCGACGAUCCAGCUUUUUCAGGCGAAGGCUGAGGUCUUCUUUAAGAUGUUCAUUAGUACUAGGAGGAAAGGCUCCGCUAGACACGUGUCGCUGGACUUUUUUGGUCAACUCUGGGGCAUGUGCACCAUCCAACAGAGGAUUGAGCAUCA
B2: 44920601_44921948_1463_CDS_ENSG00000147050_ENST00000377967|human|control|control (ssRNA)
RNA: GGGAGUUCUACAGUCCGACGAUCCAUCAGUUUCUGUGCUGGAUUUAAAUUAUUUCUAUUUGCGCGGAGCUGUUCCAAAUGCUGUAAUUUCUGUGGUGUCAAACACCAUGAAUGAGCUUGUUGCUGUACUGGAGGAUGUGACACCAACAGAGGAUUGAGCAUCA
B3: chr12:48362563:48362564:+_ENSG00000134291_ENST00000256686|hu_hu|hu_hu_hu_mus_False|38_78 (ssRNA)
RNA: GGGAGUUCUACAGUCCGACGAUCUCCGUCAAGCCCUUCGAUAGACCCUUGCGGGGGUGGUAAAAACCACUUUGUAUGGGGAAGGAAAAGAAACGCCAACACACUUUCAAAAAGCGGGGGUGGGGUGAGGCGGGAGGGGGAGGUCAACAGAGGAUUGAGCAUCA
B4: chr13:98016622:98016623:+_ENSMUSG00000041773_ENSMUST00000041623|mus_mus|FALSE|FALSE (ssRNA)
RNA: GGGAGUUCUACAGUCCGACGAUCGACGAAUGCAGUAGGGAUCAGAGAGUAGGGAACAGUGGUUAUGCUGUUCCACACAUCUAAAGUUGGGUCGUAACAGUCCAAAGUCUUGCAGCGCUGAAUGCCGAAGUACCCUCCAACUACCAACAGAGGAUUGAGCAUCA
B5: chr16:94690093:94690094:+_ENSMUSG00000040785_ENSMUST00000117648|mus_hu|mus_mus_mus_hu_True|38_98 (ssRNA)
RNA: GGGAGUUCUACAGUCCGACGAUCGGGCUGGGAUGACAGCAGACAGCCCUCGAUUCCAGGGGGAAAAAGUCUUAGUCGAUACUAAUUAAAAAGUGUUUUUAUAAUUGGAAAAUCAGAUUACAUCUAUAAAAGAUGAAAAGCAAACAACAGAGGAUUGAGCAUCA
B6: chr3:102850973:102850974:+_ENSMUSG00000068823_ENSMUST00000029446|mus_hu|motif|central (ssRNA)
RNA: GGGAGUUCUACAGUCCGACGAUCACGGUGAUCUGAAUGGGAAUGAAAUGAAACCGUGCCCUUGGGAAGUUUUUUAAUCCGGAUAGCAUGAUUUCUUUGAGCAGAGAGCAUAUCAGGAACCACAGUAAACUCUACUUCAUCUGCCAACAGAGGAUUGAGCAUCA
B7: 31772456_31772576_291_3pUTR_ENSMUSG00000020300_ENSMUST00000109412|mouse|control|control (ssRNA)
RNA: GGGAGUUCUACAGUCCGACGAUCAGAGCUGUUGCUUUUCUAAAGGGUCUUGUUGUUCUUGCUGUUGACUUUUUGCUUUUUCUGACCCCAAGAUCUCAUCCUGAAUGUUAUGAGUAGCCGGGGCAGGAAAGAGCCAGGCUGACCCAACAGAGGAUUGAGCAUCA
B8: chr14:102449733:102449734:+_ENSG00000197102_ENST00000360184|hu_hu|motif|central (ssRNA)
RNA: GGGAGUUCUACAGUCCGACGAUCCAAUACCUGAAGUUUCUCAUACUCAUCAUCCCAAGUCUGAAAAACUUCAAAGCAUGCGGCCAUAACUUUUUCAAAUUCUUCAUAAGCAACAUGCAUCAAUUUCCUAGUGCCCAAUACUUUCAACAGAGGAUUGAGCAUCA
B9: chr17:26793470:26793471:+_ENSMUSG00000001576_ENSMUST00000167662|mus_mus|motif|central (ssRNA)
RNA: GGGAGUUCUACAGUCCGACGAUCAUUGGAAUCAGAGGAAAAAUUACAAAUGGCAGAGAAUCCAGCUACCCAUAAGAGACGGUUUAAGAAAAACAAAACCAAAACCAAACAAAAACAAAAAACCCCAAAACUUCCUACUGCAGGCAACAGAGGAUUGAGCAUCA
B10: chr6:41757443:41757444:+_ENSG00000214736_ENST00000398881|hu_mus|hu_hu_hu_mus_False|38_98 (ssRNA)
RNA: GGGAGUUCUACAGUCCGACGAUCGAACCGUGCAGAGACCAGAGAAUAGCCGACACUGGGGGAUGGGGGGGCAGUGGGGGGGGGUUCAGGCAAGGAGAAGAAAAGUGCUUCAGCUGCCACUCAGGUAGGAUCUUGUGGUCACAGCAACAGAGGAUUGAGCAUCA
B11: 184256411_184260012_446_CDS_ENSMUSG00000047539_ENSMUST00000051431|mouse|control|control (ssRNA)
RNA: GGGAGUUCUACAGUCCGACGAUCGGAAUCCACAUACUUCAUGAAGGUCAUAUUCAACAGUGACAACCUCGUUUCCACAGCGGCAAGGAUGUCUGCAUGACGAGCUAAAGAAUGGUUUCUUCUUUCUGACUCUCUCCUCGGUAGCAACAGAGGAUUGAGCAUCA
B12: chr3:184040909:184040910:+_ENSG00000114867_ENST00000411531|hu_hu|motif|central (ssRNA)
RNA: GGGAGUUCUACAGUCCGACGAUCGCCAAGGUUGGCAAAGGAUGGAGUGAAGUCUGGGCCACAAUUUAUGCCUUGUAGUCGGGUGGGAUCCAGUGGCCGCAGUGGUGUUUUAUUGGCCUUGUCCAGCACCACGUCACUGAUAUGCAACAGAGGAUUGAGCAUCA
B13: chr4:137866854:137866855:+_ENSMUSG00000028757_ENSMUST00000030538|mus_hu|FALSE|FALSE (ssRNA)
RNA: GGGAGUUCUACAGUCCGACGAUCGUCAUCGCCAUCAAAGGGGACCCAUUUGCCAUUUGAGAGCUGCUGGAUCACGAUGCUAUACUCCACUAGGUCAGUGACAGUGUAGGCAUUGGGUGGGGCUGUCUCGCCCACCCGAUGAUGCAACAGAGGAUUGAGCAUCA
B14: 53243573_53243693_1779_CDS_ENSG00000177200_ENST00000398510|human|control|control (ssRNA)
RNA: GGGAGUUCUACAGUCCGACGAUCUGUUUUUGUUUUUUUGCUGUCUUUGUCCUUUGGCUUGGAUUUCAUCCUUCUACCUUUCUUUUCCUCUUUUCCUUCAACUGAAGCAGUAGGAAAGUUUUCAGGGCUCAUUACUCGUGGAAUCAACAGAGGAUUGAGCAUCA
B15: 36898635_36898755_1001_CDS_ENSMUSG00000034243_ENSMUST00000039855|mouse|control|control (ssRNA)
RNA: GGGAGUUCUACAGUCCGACGAUCAAGCUGAUGCAUCUCUUCUUGAAGGUUAUGGAAGGAUAACUUUCUCUCUGCCACUUCGAGUUCUACCUUUUCCAUCAGGGUCUUGGACUCCUGUCUUUCUGUUUCCAUGGUAUUCUUUAACAACAGAGGAUUGAGCAUCA
B16: chrX:98862621:98862622:+_ENSMUSG00000034160_ENSMUST00000044475|mus_hu|mus_mus_mus_hu_False|18_88 (ssRNA)
RNA: GGGAGUUCUACAGUCCGACGAUCCUGCAUCUCCUUUAGAGUGUUUCCCAUAUUGGAGUAGGCAUCAGCAAAGGUAGGACUGAUUCGAAUAGCCUCCUUAUAAUGCAUCAGAGCUUCCUGCAGCUUGCCCUGCUGCUGCAGUACCAACAGAGGAUUGAGCAUCA
B17: chr14:54897011:54897012:-_ENSG00000100528_ENST00000216416|hu_mus|FALSE|FALSE (ssRNA)
RNA: GGGAGUUCUACAGUCCGACGAUCCACCAGAACAUAGAUCAUGCCGUAUAGGUAGUAAAAAAACGCUAGAAGGUAAAAAGCGAGUUUGCACCAUCCUUCCUUCUGACAGUAGGCUAGAAUGUCUGCAUUCAUGAUGGUCGUCGGCAACAGAGGAUUGAGCAUCA
B18: chr7:2411435:2411436:+_ENSG00000106263_ENST00000360876|hu_mus|FALSE|FALSE (ssRNA)
RNA: GGGAGUUCUACAGUCCGACGAUCGAUGGUUUCUUUCAUCUCAACAACAUCAACAGGUACCUGCUUCUCCCUCAUUCGGAAUAUUUCAAAAUUUGUGACAACUCCCUGUGUGCCUUUCGGAGUCCUGUCCACUUUUACACAUAGCAACAGAGGAUUGAGCAUCA
B19: chr7:127231458:127231459:+_ENSG00000004059_ENST00000000233|hu_hu|motif|central (ssRNA)
RNA: GGGAGUUCUACAGUCCGACGAUCCAGGCUCCAACAACAGAGAGAACAUGCAGGCAGGAGCAGGAGCAGAGGCCUGUGGCGGUGGGGGAGGAAAAGUGGGAGGAAAGGGCACUGCCUGAGGAGUCCGGGAGUCUGGUCAUCCCGCAACAGAGGAUUGAGCAUCA
B20: chr15:85259290:85259291:-_ENSG00000140612_ENST00000559729|hu_hu|motif|central (ssRNA)
RNA: GGGAGUUCUACAGUCCGACGAUCAUUUAGGACUUGAUAAUAGAGCUGCCGCUUGUUCAUCCGCCGCACAUCGUCCAAAAAGUCGGGAGACAGCAUGGCGGGGACGGCGAGCAGGACACCGGCAGGGGAAAGGGCGCGAUGACCCAACAGAGGAUUGAGCAUCA
B21: chr11:51605143:51605144:+_ENSMUSG00000020386_ENSMUST00000020653|mus_mus|FALSE|FALSE (ssRNA)
RNA: GGGAGUUCUACAGUCCGACGAUCGGGAAGCUGAUCUUUAUAAACGGUGAUGGAUUGAUGUGGGGUUAGAAACUGUAAAAACUAUCUGUGUGGAAUUAGAAAGCUAACAUUGUGAUAUUCAAACUUGAAUCAGUUUGCAAUUCCCAACAGAGGAUUGAGCAUCA
B22: chr10:33190432:33190433:-_ENSG00000150093_ENST00000302278|hu_mus|hu_hu_hu_mus_True|1_18 (ssRNA)
RNA: GGGAGUUCUACAGUCCGACGAUCUACAUUUUCCAAACCUGCAUGUGAAUAAAACCCUGGCCACAGAGCCCCAAAACUACCCUACUGUGACUAAGAUGCUGCUGCUGUGAGCUUGGUUGUUGUGGGACCGCCUGAGUCAGUACUCAACAGAGGAUUGAGCAUCA

The target of this assay is T1, UNK ZnF1-3. Kind of assay: nsRBNS (natural sequence RNA bind-n-seq); RBNS binding buffer (assumed for nsRBNS): 25 mM Tris pH 7.5, 150 mM KCl, 3 mM MgCl2, 0.01% Triton X-100, 500 ug/ml BSA, 20 U/ml SUPERase-In, 4 C; UNK is unkempt and MSI1 is Musashi-1; names of the RNAs are library labels; protein concentration not given here; high values mean tight binding.
The molecule B1 registered a binding signal of 1.03 enrichment R.
The same measure for B2: 1 enrichment R; for B3: 1.65 enrichment R.
The same measure for B4: 0.841 enrichment R; for B5: 2.05 enrichment R; for B6: 1.23 enrichment R.
As to B7, the binding signal is 0.502 enrichment R.
The figure for B8 is 0.702 enrichment R; for B9 it is 2.93 enrichment R; for B10 it is 1.49 enrichment R.
The same measure for B11: 0.704 enrichment R.
B12 came in with a binding signal of 1.1 enrichment R.
The figure for B13 is 0.792 enrichment R; for B14 it is 0.173 enrichment R.
The figure for B15 is 0.521 enrichment R; for B16 it is 0.914 enrichment R.
The same measure for B17: 0.934 enrichment R; for B18: 1.29 enrichment R.
Molecule B19 gave a binding signal of 2.28 enrichment R.
In the case of B20, the binding signal is 0.905 enrichment R.
Consider B21, for which the binding signal amounted to 1.26 enrichment R.
The same measure for B22: 1.17 enrichment R.
